# Results from PubChem BioAssay AID488969 (Vanderbilt High Throughput Screening Facility, 2010).
# In all, about 110,000 compounds were measured (“z-score”: median about -0.1, highest 2% from about 2 on). This is one part of the list. The source made the active and inactive calls.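 Rule for the calls: active = z-score in the third read window above 3 or below -3; inactive = the rest.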
# Target: Metabotropic glutamate receptor 8 (Rattus norvegicus) (UniProt P70579)
# Assay: rat mGluR8 modulators via GIRK flux, primary screen, cell-based, thallium flux, HTS (AID 488969)
# Settings: HEK293 rat mGluR8, GIRK (G protein-gated inwardly rectifying potassium channel) thallium flux, FluoZin2; at 10 µM; stronger effect = higher value; submaximal glutamate (EC20) added with thallium
# Sequence of UniProt P70579 (P70579 whole entry, looked up): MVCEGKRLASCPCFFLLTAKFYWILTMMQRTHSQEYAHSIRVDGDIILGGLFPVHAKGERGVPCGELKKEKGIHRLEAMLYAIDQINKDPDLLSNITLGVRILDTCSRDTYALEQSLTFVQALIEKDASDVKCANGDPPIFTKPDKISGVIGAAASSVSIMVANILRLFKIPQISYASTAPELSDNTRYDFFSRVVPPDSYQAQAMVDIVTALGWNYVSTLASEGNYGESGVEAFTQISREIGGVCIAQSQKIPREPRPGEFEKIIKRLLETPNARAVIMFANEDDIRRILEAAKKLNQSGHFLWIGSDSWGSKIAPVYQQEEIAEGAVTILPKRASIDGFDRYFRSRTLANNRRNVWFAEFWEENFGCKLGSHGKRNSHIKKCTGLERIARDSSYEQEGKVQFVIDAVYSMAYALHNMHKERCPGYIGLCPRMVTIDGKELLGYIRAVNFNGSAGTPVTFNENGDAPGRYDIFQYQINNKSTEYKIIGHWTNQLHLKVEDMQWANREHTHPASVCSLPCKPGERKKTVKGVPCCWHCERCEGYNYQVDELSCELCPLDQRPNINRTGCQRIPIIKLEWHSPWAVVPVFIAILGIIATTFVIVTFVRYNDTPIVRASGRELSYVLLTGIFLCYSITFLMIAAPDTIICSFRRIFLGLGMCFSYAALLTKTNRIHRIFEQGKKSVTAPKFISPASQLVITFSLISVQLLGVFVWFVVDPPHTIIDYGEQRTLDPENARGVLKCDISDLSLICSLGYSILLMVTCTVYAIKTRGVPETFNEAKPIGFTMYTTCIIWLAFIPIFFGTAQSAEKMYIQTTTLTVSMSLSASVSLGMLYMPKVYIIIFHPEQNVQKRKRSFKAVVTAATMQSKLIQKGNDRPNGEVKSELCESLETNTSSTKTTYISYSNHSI
row,Compound,z-score
1,COc1cc(Br)cc2cc(C(=O)OC3CCN(C)CC3)c(=O)oc12,1.69
2,Cc1cc(NC(=O)CCC2COc3ccccc3O2)no1 (stereo not given),0.915
3,CC(=O)Nc1ccc(S(=O)(=O)Nc2nc3ccccc3nc2Nc2ccc3ccccc3c2)cc1,-0.191
4,O=C1CCC(C(=O)Nc2ccccc2)N1 (stereo not given),0.234
5,O=c1c2ccccc2nc(/C=C/c2c[nH]c3ccccc23)n1-c1ccc([N+](=O)[O-])cc1,-0.196
6,O=C(Cn1cnc2ccccc21)N/N=C/c1cccs1,0.463
7,COc1ccc(Cl)cc1NC(=O)CN1CCC(n2nnc3ccccc32)CC1,-1.05
8,Cc1cccc(CSc2nnc(NC(=O)c3ccco3)s2)c1,-0.183
9,CCCCCOc1ccc(Br)cc1CSC(=N)N,1.59
10,COc1cc(SC)ccc1C(=O)OC1CCOC1=O (stereo not given),-0.0339
11,COc1cc(-c2nnc(COC(=O)c3c4c(nc5ccccc35)CCCC4)o2)cc(OC)c1OC,-0.71
12,COc1ccc(C2C(C(C)=O)=C(Nc3ccccc3)CC(C)(O)C2C(C)=O)cc1OC (stereo not given),-0.11
13,COc1ccc(NC(=O)Cn2nnc(C(=O)NCc3ccccc3OC)c2N)cc1Cl,-0.146
14,COc1ccc(CC(=O)NNC(=O)CSc2nnc(Cc3ccc(OC)cc3)n2-c2ccccc2)cc1,-0.277
15,O=S(N1CCCCCC1)C12CC3CC(CC(C3)C1)C2 (stereo not given),-0.453
16,Cc1cc(C)n(-c2ccc(Cl)c(C(=O)Nc3cc(C(F)(F)F)ccc3Cl)n2)n1,0.25
17,CCOC(=O)C(C)Sc1nc(-c2ccccc2)nc2ccc(F)cc12 (stereo not given),-0.185
18,COc1ccc(-n2nc(C(=O)Nc3nc4ccc(OC)cc4s3)c3ccccc3c2=O)cc1,-0.174
19,CCOC(=O)c1[nH]c2ccc(Cl)cc2c1NC(=O)c1nonc1C,-0.0646
20,COCC(=O)N=Nc1c(O)[nH]c2ccccc12,-0.146
21,COc1ccc(-c2nc(NC(=O)Cn3ccc(C(F)(F)F)n3)sc2C)cc1,0.268
22,CC(C)(C)c1cc(/C=N/NC(=O)Cc2nc3ccccc3[nH]2)cc(C(C)(C)C)c1O,-0.238

row,Compound,z-score
1,Cc1ccc(S(=O)(=O)C(F)(F)F)cc1NC(=O)c1cccnc1,-0.181
2,CC(C)S(=O)(=O)C1=NSC2=NC(=O)/C(=C\c3ccc(-c4ccccc4)o3)C(=N)N21,-0.673
3,COc1cccc(NC(=O)CSc2nnc(Cc3cccn3C)n2-c2ccc(F)cc2)c1,-0.673
4,COc1ccc(-c2cc(C(=O)O)c3c(C)nn(-c4ccccn4)c3n2)cc1,-0.0513
5,C#CCOC(=O)C(NC(=O)c1ccccc1)=C(C)C,-0.0291
6,COc1ccc(C(=O)N2CCN(S(=O)(=O)c3ccc(Cl)cc3)CC2)cc1OC,-0.647
7,COc1ccc(Nc2cc(C(=O)NCCCN3CCN(C)CC3)c3ccccc3n2)c(OC)c1,0.657
8,O=C1c2ccccc2C(=O)N1CC(=O)N1c2ccccc2Sc2ccccc21,-0.494
9,CCN(CC)S(=O)(=O)c1cccc(NC(=O)/C=C/c2ccc([N+](=O)[O-])cc2)c1,-0.143
10,COc1cc(C2N(C)CCC3(OCCO3)C2(C)C)cc(OC)c1OC (stereo not given),-0.0713
11,O=C1CCc2cc(S(=O)(=O)N3CCN(C(=O)c4ccco4)CC3)ccc2N1,1.15
12,NS(=O)(=O)c1ccc(CNC(=O)c2ccc(Br)o2)cc1,0.122
13,Cc1cc(Nc2ccccc2)n(C(=O)c2ccc(Cl)cc2)n1,0.82
14,Cc1cc(C)cc(NC(=O)CSc2nc3ccncc3[nH]2)c1,2.24
15,Cc1ccc(CS(=O)(=O)c2ccccc2-c2nnc(-c3ccc(Cl)cc3)o2)cc1,-0.114
16,CN(C(=O)c1ccc(S(=O)(=O)N2CCCC2)cc1)C1CCCCC1,-1.05
17,COc1cc(CNn2c(C)n[nH]c2=S)cc(Cl)c1OCc1ccc(F)cc1,-0.033
18,O=S(=O)(/N=C/c1ccccc1O)c1cccs1,-0.0386
19,COc1cccc(-c2n[nH]c(=S)n2Cc2ccco2)c1OC,0.0257
20,Nc1ncnc(Nc2ccc(F)cc2)n1,0.0495
21,CCC(=O)NC(O)C(=O)c1ccc(C)cc1 (stereo not given),-0.133
22,Cc1cc(C)cc(N2C(=O)CC(N(C(=O)c3ccco3)c3cc(C)cc(C)c3)C2=O)c1 (stereo not given),-0.359

row,Compound,z-score
1,Cc1ccc(NS(=O)(=O)c2ccc3c(c2)C(=O)c2ccccc2C3=O)c(C)c1,-0.0521
2,COC(=O)c1ccc(/C=N/N2CCN(Cc3ccc(C)cc3C)CC2)cc1,2.42
3,Cc1cc(C)c(S(=O)(=O)N(CC(=O)N2CCCC2)C2CCCCC2)c(C)c1,-0.688
4,O=C(Nc1ccc(Cl)cc1C(=O)NCCN1CCOCC1)c1ccc(Cl)cc1Cl,-0.842
5,CC(C)CC(=O)Nc1ccccc1N1CCN(C(=O)c2ccccc2)CC1,-2.63
6,O=C(CCn1cccc1)NC1CCCc2ccccc21 (stereo not given),-0.136
7,Cc1ccc(C)c(C(=O)CC2(O)C(=O)N(C)c3ccccc32)c1 (stereo not given),-0.422
8,O=C(CN1CCN(C2CCCCC2)CC1)Nc1ccccc1-c1ccccc1,0.348
9,CN(CC(=O)O/N=C(\N)c1ccccn1)S(=O)(=O)c1ccccc1,-0.352
10,Cc1ccc(NC(=O)N/C=C/c2ccco2)c(C)c1,-0.28
11,c1cncc(-c2nn3c(Cn4cnc5ccccc54)nnc3s2)c1,0.0748
12,O=C(C[n+]1ccccc1)Nc1cc(C(F)(F)F)ccc1Cl,-0.138
13,COc1ccccc1-n1c(SCC(=O)N2CCCCC2)nc2cccnc21,-0.234
14,O=C(CCSc1ccccc1)Nc1nccs1,0.115
15,O=C(c1cccs1)c1ccc(-c2cccs2)s1,-0.213
16,Fc1ccc(-c2cnc[nH]2)cc1,-0.0766
17,O=C1NC(c2ccco2)Nc2ccccc21 (stereo not given),0.126
18,COc1ccccc1N(CC(=O)NCc1ccccn1)S(C)(=O)=O,-0.398
19,Cc1cccc(CSc2nnnn2-c2ccccc2)c1,-0.134
20,Cc1ccc(C(=O)NNC(=O)CSc2nnc3c(n2)[nH]c2ccc(C)cc23)cc1,0.0348
21,CC(C)=C1C2CCC1C1C(=O)N(c3nc(-c4ccccc4)c(C)s3)C(=O)C21 (stereo not given),-0.116
22,CCCSc1nnc(Cn2c(=O)sc3ccccc32)n1-c1ccccc1,-0.182

row,Compound,z-score
1,CC(C)(C)NC(=O)C1CCN(C(=O)c2ccc(Br)cc2)CC1,-0.166
2,O=C(c1ccc(Br)s1)N1CCN(c2ncccn2)CC1,0.776
3,Cc1cccc(C)c1NC(=O)CN1N=NC2C(=O)N(c3cccc(Cl)c3)C(=O)C21 (stereo not given),-0.178
4,Cc1cc(C)c2c(N)c(C(=O)c3ccc(Cl)cc3Cl)sc2n1,-0.216
5,C#CCONC(=O)c1cc(OCC(F)(F)F)ccc1OCC(F)(F)F,-0.0792
6,CC1(C)CC(=O)c2sc(NC(=O)C3COc4ccccc4O3)nc2C1 (stereo not given),-0.113
7,Cc1cccc(C)c1NC(=O)CSc1nnc(-c2ccccc2)n1Cc1ccc2c(c1)OCO2,-0.423
8,O=C(NNS(=O)(=O)c1ccc(Br)cc1)c1ccncc1,-0.199
9,COc1cc(OC)cc(C(=O)Nc2cc(NC(=O)c3ccco3)ccc2OC)c1,-0.995
10,CCCCn1c(-c2csc(C(C)C)c2)n[nH]c1=S,active: 6.36
11,O=C(CCCN1C(=O)c2ccccc2C1=O)N1CCc2ccccc2C1,-0.236
12,CC(C)OC(=O)c1c2c(n3ccccc13)C(=O)c1ccccc1C2=O,-0.105
13,O=C(CN(C(=O)c1ccc2c(c1)OCCO2)c1ccccc1)NCC1CCCO1 (stereo not given),-0.236
14,N#Cc1ccc(-c2ccc(F)cc2)nc1Oc1ccc(F)cc1,0.0358
15,COc1ccc(C2N=C(N)N=C(N)N2c2ccc(C)cc2)cc1 (stereo not given),0.272
16,O=C(NC1CCCC1)c1ccc(Br)o1,-0.454
17,Cc1nc(CCNS(=O)(=O)c2cccs2)cs1,0.256
18,CC(C)c1ccc(NC(=S)NC2CCN(Cc3ccccc3)CC2)cc1,0.569
19,Cn1cc(Cl)c(C(=O)Nc2cccc(Cl)c2Cl)n1,0.0454
20,Cc1cc(O)c(C(C[N+](=O)[O-])c2ccc(Cl)cc2)c(=O)o1 (stereo not given),0.103
21,CCOC(=O)c1sc2nc(CC(=O)OC)nc(NCc3ccc(F)cc3)c2c1C,0.0081
22,CCN(CC)CCNC(=O)c1cc2c(-c3ccc(Cl)cc3)nn(C)c2s1,0.278

row,Compound,z-score
1,CC(=O)Nc1nc2ccc(C(=O)NC3CCCCC3)cc2s1,-0.32
2,CCOC(=O)c1sc(NC(=O)C2CC2)nc1C,-0.0762
3,CCCC(=O)Nc1ccc2c(c1)nc(CCNC(=O)c1ccccc1)n2C,-0.349
4,O=C(O)CCc1ccc(-c2ccc(Cl)cc2)n1Cc1ccco1,-0.427
5,CCOc1ccc2nc(N3C(=O)/C(=C/c4ccc(Cl)cc4)NC3=S)sc2c1,1.05
6,CCOC(=O)c1[nH]c(C)c(C(=O)NC2CCCCC2)c1C,active: 3.27
7,Cc1ccc(C)c(N2CCN(C(=O)c3ccc(NS(=O)(=O)c4c(C)noc4C)cc3)CC2)c1,-0.175
8,COC(=O)c1ccc(C(=O)OC)c(NC(=O)CSc2nc(-c3ccco3)cc(C(F)(F)F)n2)c1,active: -3.68
9,COc1ccc(-n2cc3c(-c4cccc(Br)c4)nnc(C)c3n2)cc1,-0.735
10,Cc1cc(C)c2cc(C#N)c(N3CCCN(S(=O)(=O)c4ccccc4)CC3)nc2c1,-0.0781
11,Cc1ccc(NC(=O)CS(=O)(=O)c2c[nH]c3ccccc23)c(C)c1,-0.305
12,C=CCn1c(SCc2cc(C(C)=O)ccc2OCC)nc2ccccc2c1=O,-0.297
13,O=S(=O)(Nc1ccc2c(c1)nc1n2CCN(Cc2ccccc2)C1)c1ccc(Cl)cc1,-1.03
14,CCCOP(=O)(OCCC)C(NC(=O)C(C)(C)C)c1ccccc1 (stereo not given),0.0289
15,COc1ccc(NC(=O)c2cc3nc(-c4ccccc4)cc(-c4ccccc4)n3n2)c(OC)c1,-0.94
16,CC1(C)CC(NC(=O)c2coc(=O)c(Br)c2)CC(C)(C)N1,-0.14
17,O=S(=O)(NCc1ccccn1)c1ccc(Br)s1,-0.0365
18,Cc1cc2ncn(CCOc3ccccc3C#N)c2cc1C,-1.65
19,CSCCC(NC(=O)c1cc(C)oc1C)C(=O)O (stereo not given),-0.102
20,CCCC(=O)OCC(=O)Nc1ccc(OC(F)F)cc1,-0.256
21,Cc1cc(NC(=O)CCC(=O)NNC(=O)c2ccc(C(C)(C)C)cc2)no1,-0.141
22,COc1ccc(CCNC(=O)C2CCCN2C(=O)NC2CCCCC2)cc1OC (stereo not given),-1.01
